Assay results taken from the supplement of paper PMC6135742.
Counter-ions that a name gives are not always drawn. ± gives the standard deviation of the averaged measurements. In all, about 2,600 compounds were measured (“MBP+ mature oligodendrocyte number relative to DMSO vehicle control”: median about -0.34, highest 2% from about 13 on). This is one part of the list.

The compounds below were run on jimpy (Plp1 jimpy) mouse iPSC-derived oligodendrocyte progenitor cells (assay: MBP+ mature oligodendrocyte number relative to DMSO vehicle control (SDs above negative control mean); higher = more surviving jimpy oligodendrocytes (rescue)). Details: 10 µM; 3 days.
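Also: 10 µM single dose with 3-day oligodendrocyte differentiation.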

Compound | MBP+ mature oligodendrocyte number
CN[C@@H]1[C@H](O)[C@H](NC)[C@H]2O[C@@]3(O)C(=O)C[C@@H](C)O[C@H]3O[C@@H]2[C@H]1O [Spectinomycin HCl] | 2.24
NC(=O)c1cnc(N[C@@H]2CCCC[C@@H]2N)nc1Nc1cccc(-n2nccn2)c1 | -4.64
CN[C@H](CC(=O)O)C(=O)O [N-Methyl-D-aspartic acid] | -0.99
Cc1onc(-c2ccccc2Cl)c1C(=O)N[C@@H]1C(=O)N2[C@@H]1SC(C)(C)[C@@H]2C(=O)O [Cloxacillin Sodium] | -1.12
C#Cc1cccc(Nc2ncnc3cc(OCCOC)c(OCCOC)cc23)c1 [Erlotinib HCl (OSI-744)] | -6.26
COc1ccc(Cn2ccc3ccc(C(=O)NO)cc32)cc1 | -2.18
Cn1c(=O)c2[nH]c(-c3ccccc3)nc2n(C)c1=O [1,3-Dimethyl-8-phenylxanthine] | 0.108
COC(=O)C1=CO[C@@H](O[C@@H]2O[C@H](CO)[C@@H](O)[C@H](O)[C@H]2O)[C@@H]2C(CO)=CC[C@H]12 [Geniposide] | 2.24
Cc1cc(C)c(CNC(=O)c2cc(-c3ccc(CN4CCOCC4)cc3)cc3c2cnn3C2CCCC2)c(=O)[nH]1 | 30.2
OC[C@H]1NC[C@H](O)[C@@H](O)[C@@H]1O [1-Deoxynojirimycin hydrochloride] | 1.03
CC1(C)O[C@H]2CC(=O)OC[C@]23[C@H]2CC[C@@]4(C)[C@H](c5ccoc5)OC(=O)[C@H]5O[C@]54[C@]2(C)C(=O)C[C@@H]13 [Limonin] | 1.18
Cc1c(-c2ccccc2)oc2c(C(=O)OCCN3CCCCC3)cccc2c1=O [Flavoxate HCl] | 1.84
CCCCCCOC(=O)NC(=N)c1ccc(NCc2nc3cc(C(=O)N(CCC(=O)OCC)c4ccccn4)ccc3n2C)cc1 [Dabigatran Etexilate] | < -3.97
Cc1cc(Nc2ncc3cc(-c4c(Cl)cccc4Cl)c(=O)n(C)c3n2)ccc1F | -3.22
COc1ccc(O)cc1 [Mequinol] | 2.18
CC(C)C[C@@H](C(=O)N[C@H](C(=O)OC1CCCC1)c1ccccc1)[C@H](O)C(=O)NO [Tosedostat (CHR2797)] | -4.88
CC(C(=O)O)c1ccc2c(c1)[nH]c1ccc(Cl)cc12 (stereo unspecified) [Carprofen] | 3.53
Cc1cccc(C)c1NC(=O)C(C)N (stereo unspecified) [Tocainide hydrochloride] | 0.398
C=CCc1cccc(/C=N/NC(=O)CN2CCN(Cc3ccccc3)CC2)c1O | -4.93 ± 1.5
O=C1c2c(O)cccc2C([C@@H]2O[C@H](CO)[C@@H](O)[C@H](O)[C@H]2O)c2cc(CO)cc(O)c21 (stereo partly specified) [Aloin] | -4.7
O=C(Nc1cccc(C(F)(F)F)c1)Nc1cc(S(=O)(=O)NC2CC2)ccc1-c1ccsc1 | 18.2
CC[N+](CC)(CC)CCOc1ccc(/C=C/c2ccccc2)cc1 | < -3.97
Cc1ccccc1C(=O)Nc1ccc(C(=O)N2CCCC(O)c3cc(Cl)ccc32)c(C)c1 (stereo unspecified) [Tolvaptan] | 4.98

Compound | MBP+ mature oligodendrocyte number
CC(=O)O[C@H]1CC[C@@]2(C)C(=CC[C@@H]3[C@@H]2CC[C@]2(C)C(c4cccnc4)=CC[C@@H]32)C1 [Abiraterone Acetate] | -0.0525
CN(C)C(=O)C(CCN1CCC(O)(c2ccc(Cl)cc2)CC1)(c1ccccc1)c1ccccc1 [Loperamide HCl] | -4.75
CN(C)C(=O)C(CCN1CCC(O)(c2ccc(Cl)cc2)CC1)(c1ccccc1)c1ccccc1 [Loperamide hydrochloride] | -3.62
Cc1c(OCC(F)(F)F)ccnc1C[S@@+]([O-])c1nc2ccccc2[nH]1 [Dexlansoprazole] | 17.2
CC(C(=O)O)c1ccc(-c2ccccc2)c(F)c1 (stereo unspecified) [Flurbiprofen] | -0.0169
COc1cc2c(N3CCN(C(=O)Nc4ccc(OC(C)C)cc4)CC3)ncnc2cc1OCCCN1CCCCC1 [Tandutinib (MLN518)] | -5.91
NC(=O)c1cn(Cc2c(F)cccc2F)nn1 [Rufinamide] | 0.263 ± 0.28
Cc1cc(O)c2c(c1)C(=O)c1cccc(O)c1C2=O [Chrysophanic Acid] | 1.29
NC(N)=NC(N)=Nc1cccc(Cl)c1 [1-(m-Chlorophenyl)-biguanide hydrochloride] | 0.973
Nc1nc(CC(=O)Nc2ccc(CCNC[C@H](O)c3ccccc3)cc2)cs1 [Mirabegron] | -3.47
NC[C@@H]1O[C@H](O[C@H]2[C@@H](O)[C@H](O[C@@H]3[C@@H](O)[C@H](N)C[C@H](N)[C@H]3O[C@H]3O[C@H](CO)[C@@H](O)[C@H](O)[C@H]3N)O[C@@H]2CO)[C@H](N)[C@@H](O)[C@@H]1O [Paromomycin sulfate] | 0.396
CC[C@]1(O)C[C@H]2CN(CCc3c([nH]c4ccccc34)[C@@](C(=O)OC)(c3cc4c(cc3OC)N(C=O)[C@H]3[C@@](O)(C(=O)OC)[C@H](OC(C)=O)[C@]5(CC)C=CCN6CC[C@]43[C@@H]65)C2)C1 [Vincristine] | < -6.7
CC[C@]1(O)C[C@H]2CN(CCc3c([nH]c4ccccc34)[C@@](C(=O)OC)(c3cc4c(cc3OC)N(C=O)[C@H]3[C@@](O)(C(=O)OC)[C@H](OC(C)=O)[C@]5(CC)C=CCN6CC[C@]43[C@@H]65)C2)C1 [Vincristine sulfate] | -3.78
COc1ccccc1OCC(O)CO (stereo unspecified) [Guaifenesin] | -0.737
Cc1cc(=O)[nH]c(=S)[nH]1 [Methylthiouracil] | 1.53
CC(=O)[C@H]1CC[C@H]2[C@@H]3C=CC4=CC(=O)CC[C@@]4(C)[C@@H]3CC[C@]12C [Dydrogesterone] | 0.153
CN1[C@@H]2CC[C@H]1C[C@@H](OC(=O)c1c[nH]c3ccccc13)C2 [Tropisetron] | 1.96
COc1ccccc1N1CCN(CCCCN2C(=O)c3ccccc3C2=O)CC1 [NAN-190 hydrobromide] | -1.46
Cc1cccc(C)c1OCC(C)N (stereo unspecified) [Mexiletene hydrochloride] | -0.441
Cc1cccc(C)c1OCC(C)N (stereo unspecified) [Mexiletine HCl] | 1.76
COc1ccc(/C=C/C(=O)Nc2ccccc2C(=O)O)cc1OC [Tranilast] | 1.25 ± 0.85
CCN(CC)CCNC(=O)c1c(C)[nH]c(/C=C2\C(=O)Nc3ccc(F)cc32)c1C [Sunitinib Malate] | -6.61
CCN(CC)CCNC(=O)c1c(C)[nH]c(/C=C2\C(=O)Nc3ccc(F)cc32)c1C [Sunitinib malate] | -4.36
